# The list shows a part of the results. The energies were worked out here from pooled read counts, against the library average; single values are noisy.
# Target: T1, Pho4 (S. cerevisiae) (UniProt P07270)
# T1 sequence: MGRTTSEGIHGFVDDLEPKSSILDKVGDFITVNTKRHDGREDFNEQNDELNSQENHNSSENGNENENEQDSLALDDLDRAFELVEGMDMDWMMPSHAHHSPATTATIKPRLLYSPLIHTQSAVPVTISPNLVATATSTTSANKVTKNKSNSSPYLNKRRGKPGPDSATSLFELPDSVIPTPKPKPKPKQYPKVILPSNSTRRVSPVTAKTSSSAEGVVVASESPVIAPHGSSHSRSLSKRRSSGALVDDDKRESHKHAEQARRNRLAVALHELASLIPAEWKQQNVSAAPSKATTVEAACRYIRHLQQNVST
# Assay: relative binding free energy (BET-seq); higher = weaker binding
# Settings: reference: library average
row,Sequence,relative binding free energy [kcal/mol]
1,AGAAGCACGTGTTGGG,-0.02
2,ATCTTCACGTGTATAG,0.22
3,GTTGTCACGTGGCAAT,0.12
4,TTTAGCACGTGGCTAT,-0.15
5,TATTTCACGTGGTAGG,0.15
6,TGTGTCACGTGAGTAC,0.23
7,GTGTTCACGTGACAAT,0.51
8,AGCTGCACGTGGAATA,0.3
9,CTTATCACGTGGGAAG,0.08
10,TTTACCACGTGAGGGG,0.21
11,ATTGTCACGTGGAAAG,0.08
12,GGTGACACGTGGCTGA,0.04
13,TCTGGCACGTGGGCTG,-0.3
14,TTGTTCACGTGCAGAT,0.09
15,CATGGCACGTGTATTT,-0.17
16,GAGTCCACGTGATGGT,0.29
17,AGTTTCACGTGATACT,0.32
18,AGGTACACGTGTGGCA,0.08
19,TTGCTCACGTGGTTGG,0.27
20,CGTGTCACGTGCGTGG,-0.1
21,GTATGCACGTGAATTG,0.14
22,GAGATCACGTGATAGG,0.39
23,GGTGACACGTGAGATT,0.28
24,ATCGGCACGTGAGTTG,0.24
25,CGGATCACGTGTGTGC,0.19

row,Sequence,relative binding free energy [kcal/mol]
1,AAGTGCACGTGGTACG,-0.23
2,GTTTGCACGTGTTTGC,0.04
3,CGTTTCACGTGAGGTA,0.24
4,ATATGCACGTGAGATT,0.26
5,TTAGTCACGTGCCGGT,0.03
6,GATTGCACGTGCGGAG,0.02
7,TCTTACACGTGTGTTG,0.27
8,TTGTTCACGTGAGCTG,0.39
9,GTTGGCACGTGTGTAA,-0.03
10,TCGATCACGTGTTAGT,0.13
11,ATCTTCACGTGTGGGA,0.23
12,GCAGGCACGTGGTAGG,-0.13
13,TGTGGCACGTGGAACA,0.02
14,GGAGTCACGTGGGGTC,0.13
15,AGTTGCACGTGTGGAC,0.13
16,GTTTTCACGTGCGGCA,0.35
17,CTAATCACGTGGTATT,0.01
18,AAAGGCACGTGATTTG,0.11
19,TATGTCACGTGATGTA,0.12
20,TATGCCACGTGTGGAG,-0.04
21,GTGGTCACGTGAGACG,0.35
22,GGAAGCACGTGACGGT,0.06
23,AGGAGCACGTGATGGC,0.09
24,AGGGTCACGTGGCGCT,-0.01
25,GTGGTCACGTGTAGGG,0.19

row,Sequence,relative binding free energy [kcal/mol]
1,ATACGCACGTGTTTTT,-0.15
2,GGAGTCACGTGTTATC,0.23
3,AGTACCACGTGAATGT,0.23
4,AGAGCCACGTGGTTGT,-0.11
5,GGGGTCACGTGTATTA,0.31
6,TAAGTCACGTGAGGGA,0.35
7,TTTCGCACGTGTGAAT,0.04
8,CGTAGCACGTGTGTGA,0.02
9,GCTAGCACGTGGATGT,-0.04
10,TGATGCACGTGAAATG,0.22
11,TGTAACACGTGCGTGG,-0.19
12,TAGGCCACGTGGAGAT,0.07
13,GGTCGCACGTGGTAGG,-0.12
14,ACTATCACGTGGGGGA,0.03
15,ACTATCACGTGTATTT,0.09
16,GGGGACACGTGTCGGT,0.01
17,AATATCACGTGTGTGA,0.15
18,GGTGGCACGTGCGTAA,-0.1
19,TGGTCCACGTGGGAGG,-0.09
20,GGAGACACGTGTCGGG,0
21,AGTTGCACGTGGGTAG,-0.14
22,GTGTCCACGTGGATTG,0.1
23,AGTGGCACGTGTGGAG,-0.02
